From the supplement of paper PMC6135742
Counter-ions that a name gives are not always drawn. ± gives the standard deviation of the averaged measurements. Whole data set: some 2,600 compounds, median “MBP+ mature oligodendrocyte number relative to DMSO vehicle control” near -0.34, cut for the highest 2% near 13. This is one part of the list.

Tested on: jimpy (Plp1 jimpy) mouse iPSC-derived oligodendrocyte progenitor cells
Test: MBP+ mature oligodendrocyte number relative to DMSO vehicle control (SDs above negative control mean); higher = more surviving jimpy oligodendrocytes (rescue)
Conditions: 10 µM; 3 days
Experimental: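 Primary phenotypic screen of >3,000 bioactive compounds (Selleck L1700 and Sigma LO1280 libraries) at a single dose of 10 µM. Compounds were added to jimpy (Plp1 mutant) mouse iPSC-derived OPCs at the start of thyroid hormone-induced oligodendrocyte differentiation, one well per compound in 384-well plates. After 3 days cells were stained for MBP, Sox10 and DAPI and imaged with an Operetta system. MBP+ oligodendrocyte number and total cell number were expressed as the number of SDs above the mean of the DMSO negative control on the same plate (n=16 control wells per plate). Hits were defined as >=4 SD for oligodendrocytes and >=2 SD for total cells.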

Compared with `CCCN1CCc2cccc3c2[C@H]1Cc1ccc(O)c(O)c1-3` [R(-)-Propylnorapomorphine hydrochloride], `CCCN1CCc2cc(O)cc3c2[C@H]1Cc1ccc(O)c(O)c1-3` [R(-)-2,10,11-Trihydroxy-N-propylnoraporphine hydrobromide] is higher in “MBP+ mature oligodendrocyte number” value: -4.1 for the first, -3.11 for the second.

First: CCN1C[C@]2(COC)[C@H](O)C[C@H](OC)[C@@]34[C@@H]5C[C@@]6(O)[C@H](OC(=O)c7ccccc7)[C@@H]5[C@@](OC(C)=O)([C@@H]([C@H](OC)[C@H]23)[C@@H]14)[C@@H](O)[C@@H]6OC [Aconitine]
Second: CC(=O)OC12COC1CC(O)C1(C)C(=O)C(O)C3=C(C)C(O)CC(O)(C(OC(=O)c4ccccc4)C21)C3(C)C (centres undefined) [10-Deacetylbaccatin-III]
The “MBP+ mature oligodendrocyte number” value of the first is higher: 0.196 for the first, -2.51 for the second.

`CNc1ccc2oc(C[C@H]3O[C@@]4(CC[C@H]3C)O[C@H]([C@H](C)C(=O)c3ccc[nH]3)[C@H](C)C[C@H]4C)nc2c1C(=O)O` [Calcimycin] and `CC[C@@H]1/C=C/C=C/C[C@H](C)[C@H](O)[C@](C)(O)C(=O)[C@H](C)[C@@H](O)[C@H](C)C(=O)[C@H](C)[C@@H](O)[C@H](C)/C=C/C(=O)O[C@H]2[C@@H](C)[C@@H](CC1)O[C@@]1(CC[C@@H](C)[C@@H](C[C@H](C)O)O1)[C@@H]2C` [Oligomycin A] cannot be ordered by “MBP+ mature oligodendrocyte number” value: less than -3.34 for the first, less than -6.7 for the second.

Going from `c1ccc2c(c1)[I+]c1ccccc1-2` [Diphenyleneiodonium chloride] to `NCCc1c[nH]c2ccccc12` [Tryptamine hydrochloride], the “MBP+ mature oligodendrocyte number” value rises from less than -4.47 to -0.433.

Compared with `CC(N)Cc1cccc(C(F)(F)F)c1` (single isomer, unassigned; (+)) [(+)-Norfenfluramine hydrochloride], `C#CCN[C@H](C)Cc1ccccc1` [R-(-)-Desmethyldeprenyl hydrochloride] is higher in “MBP+ mature oligodendrocyte number” value: 0.753 for the first, 1.44 for the second.

First: NC(=O)COc1c(F)cc(SCCNS(=O)(=O)c2ccccc2)cc1F
Second: CCC(COC(=O)c1cc(OC)c(OC)c(OC)c1)(c1ccccc1)N(C)C (centres undefined) [Trimebutine]
The “MBP+ mature oligodendrocyte number” value of the first is lower: -1.7 for the first, 10.8 for the second.

Compared with `CCCN1CCC[C@H](c2cccc(O)c2)C1` [R(+)-3PPP hydrochloride], `CCCN1CCC[C@@H](c2cccc(O)c2)C1` [S(-)-3PPP hydrochloride] is lower in “MBP+ mature oligodendrocyte number” value: 1.07 for the first, -0.997 for the second.

Compared with `CCN(C)C(=O)Oc1cccc([C@H](C)N(C)C)c1` [Rivastigmine Tartrate], `CN(C)C(=O)Oc1cccc([N+](C)(C)C)c1` [Neostigmine bromide] is lower in “MBP+ mature oligodendrocyte number” value: 0.793 for the first, 0.0294 for the second.

Compared with `CCC1(c2ccc(N)cc2)CCC(=O)NC1=O` (centres undefined) [Aminoglutethimide], `CCC1(c2cccc(O)c2)CCCCN(C)C1` (centres undefined) [Meptazinol HCl] is higher in “MBP+ mature oligodendrocyte number” value: -1.1 for the first, -1.01 for the second.

First: C[N+]1(C)CCN(c2ccccc2)CC1 [1,1-Dimethyl-4-phenyl-piperazinium iodide]
Second: C[N+]1(C)[C@@H]2C[C@@H](OC(=O)[C@H](CO)c3ccccc3)C[C@H]1[C@@H]1O[C@@H]12 [Methscopolamine]
The “MBP+ mature oligodendrocyte number” value of the first is lower: -1.43 for the first, -1.19 for the second.

Going from `CCn1cc(C(=O)O)c(=O)c2cc3c(cc21)OCO3` [Oxolinic acid] to `COc1cc([C@@H]2c3cc4c(cc3[C@H](O)[C@H]3COC(=O)[C@H]23)OCO4)cc(OC)c1OC` [Podophyllotoxin], the “MBP+ mature oligodendrocyte number” value falls from -0.951 to less than -3.97.

First: C[C@]12CC[C@H](O)C[C@@H]1CC[C@@H]1[C@@H]2CC[C@]2(C)C(=O)CC[C@@H]12 [Epiandrosterone]
Second: C[C@@H]1CC[C@H]2[C@@H](C)C(=O)O[C@@H]3O[C@@]4(C)CC[C@@H]1[C@]32OO4 [Artemisinin]
The “MBP+ mature oligodendrocyte number” value of the first is lower: -5.45 for the first, -0.589 for the second.

Going from `C[N+]1(C)[C@@H]2C[C@@H](OC(=O)[C@H](CO)c3ccccc3)C[C@H]1[C@@H]1O[C@@H]12` [(-)-Scopolamine methyl bromide] to `O=C(O[C@H]1C[N+]2(CCCOc3ccccc3)CCC1CC2)C(O)(c1cccs1)c1cccs1` [Aclidinium Bromide], the “MBP+ mature oligodendrocyte number” value rises from -1.5 to 10.7.

Going from `CN(C(=O)Cc1ccc(Cl)c(Cl)c1)C(CN1CCCC1)c1cccc(OCC(=O)O)c1` (centres undefined) [ICI 204,448 hydrochloride] to `CN(c1nc2ccccc2s1)C1CCN(C[C@H](O)COc2ccc(F)c(F)c2)CC1` [Lubeluzole dihydrochloride], the “MBP+ mature oligodendrocyte number” value rises from 2.89 to 6.93.

Compared with `NCCc1ccc(O)cc1` [4-Hydroxyphenethylamine hydrochloride], `NCC(O)c1ccc(O)cc1` (racemic) [(±)-Octopamine hydrochloride] is higher in “MBP+ mature oligodendrocyte number” value: 0.182 for the first, 0.186 for the second.

Compared with `NCC(O)c1ccc(O)cc1` (racemic) [(+,-)-Octopamine HCl], `NCCc1c[nH]c2ccc(O)cc12` [Serotonin HCl] is lower in “MBP+ mature oligodendrocyte number” value: 1.14 for the first, -1.54 for the second.

Going from `Clc1cc(I)cc(Cl)c1NC1=NCCN1` [p-Iodoclonidine hydrochloride] to `Cc1cccc(C)c1NC1=NCCCS1` [Xylazine hydrochloride], the “MBP+ mature oligodendrocyte number” value falls from 0.343 to -0.747.

First: C[C@@H](N)Cc1cnc[nH]1 [Histamine, R(-)-alpha-methyl-, dihydrochloride]
Second: Cc1cccc([C@H](C)c2c[nH]cn2)c1C [Dexmedetomidine]
The “MBP+ mature oligodendrocyte number” value of the first is lower: 0.136 for the first, 1.69 for the second.

First: C[C@@H]1O[C@@H](O[C@H]2C[C@@H](O)[C@]3(CO)[C@H]4[C@H](O)C[C@]5(C)[C@@H](C6=CC(=O)OC6)CC[C@]5(O)[C@@H]4CC[C@]3(O)C2)[C@H](O)[C@H](O)[C@H]1O [Ouabain]
Second: C=C(C)[C@@H]1[C@H]2OC(=O)[C@@H]1[C@]1(O)C[C@H]3OC34C(=O)O[C@H]2[C@@]41C.CC(C)(O)[C@@H]1[C@H]2OC(=O)[C@@H]1[C@]1(O)C[C@H]3OC34C(=O)O[C@H]2[C@@]41C (some centres undefined) [Picrotoxin]
The “MBP+ mature oligodendrocyte number” value of the first is higher: 10.3 ± 9.9 for the first, -1.26 for the second.

Going from `Clc1ccc(N2C[C@H]3CC[C@@H](C2)N3)nn1` to `O=C1CCC[C@@H]2[C@H]3CCCN4CCC[C@@H](CN12)[C@@H]34` [(+)-Matrine], the “MBP+ mature oligodendrocyte number” value rises from 1.03 to 6.66.

Compared with `Cc1cc(SCc2sc(-c3ccc(C(F)(F)F)c(F)c3)nc2C)ccc1OCC(=O)O`, `Cc1c2ccncc2c(C)c2c1[nH]c1ccccc12` [Ellipticine] is lower in “MBP+ mature oligodendrocyte number” value: 6.98 for the first, less than -4.47 for the second.

Compared with `CC(C)(C)[C@]1(O)CC2OC(=O)CC23C(=O)OC2OC(=O)[C@H](O)C231` (some centres undefined) [Bilobalide], `CC1(C(=O)O)C2CCC(O2)C1(C)C(=O)O` (centres undefined) [Cantharidic Acid] is lower in “MBP+ mature oligodendrocyte number” value: -0.444 for the first, -3.3 for the second.

Going from `Cc1ccc(S(=O)(=O)N[C@@H](CCCCN)C(=O)CCl)cc1` [Na-p-Tosyl-L-lysine chloromethyl ketone hydrochloride] to `NCCc1c[nH]c2ccc(O)cc12` [Serotonin hydrochloride], the “MBP+ mature oligodendrocyte number” value falls from -1.25 to -1.33.

First: O=C(Oc1ccc([N+](=O)[O-])cc1)N1CCC(C(O)(c2ccc3c(c2)OCO3)c2ccc3c(c2)OCO3)CC1
Second: Oc1ccc2c3c1O[C@H]1c4oc5ccccc5c4C[C@@]4(O)[C@@H](C2)N(CC2CC2)CC[C@]314 [Naltriben methanesulfonate]
The “MBP+ mature oligodendrocyte number” value of the first is higher: 6.91 for the first, -3.19 for the second.

Going from `CCNC(=O)[C@H]1O[C@@H](n2cnc3c(N)ncnc32)[C@H](O)[C@@H]1O` [5'-N-Ethylcarboxamidoadenosine] to `CC(=O)OCC1=C(C(=O)O)N2C(=O)[C@@H](N)[C@H]2SC1` [7-Aminocephalosporanic acid], the “MBP+ mature oligodendrocyte number” value rises from -1.9 to 2.63.

Compared with `COc1cc2c(cc1OC)C1CC(=O)C(CC(C)C)CN1CC2` (centres undefined) [Tetrabenazine], `CC[C@H]1CN2CCc3cc(OC)c(OC)cc3[C@@H]2C[C@@H]1C[C@H]1NCCc2cc(OC)c(OC)cc21` [Emetine dihydrochloride hydrate] is lower in “MBP+ mature oligodendrocyte number” value: 1.68 for the first, -4.41 for the second.

Compared with `Cc1cccc(C)c1NC1=NCCCS1` [Xylazine HCl], `CCCN(CCC)[C@@H]1CCc2cccc(O)c2C1` [R-(+)-8-Hydroxy-DPAT hydrobromide] is lower in “MBP+ mature oligodendrocyte number” value: 0.283 for the first, -1.22 for the second.

Going from `CN1CC[C@@]2(C)c3cc(OC(=O)Nc4ccccc4)ccc3N(C)[C@@H]12` [Phenserine] to `CNC(=O)Oc1ccc2c(c1)[C@]1(C)CCN(C)[C@@H]1N2C` [(-)-Physostigmine], the “MBP+ mature oligodendrocyte number” value falls from 1.5 to -0.387.

`N#CCCN` [3-Aminopropionitrile fumarate] and `NC(=O)CN1CCCC1=O` [Piracetam] are within error of each other in “MBP+ mature oligodendrocyte number” value: -0.59 for the first, 0.172 ± 1.6 for the second.

Compared with `O=P1(NCCCl)OCCCN1CCCl` (centres undefined) [Ifosfamide], `Ic1ccccc1CNC1C2CCN(CC2)C1C(c1ccccc1)c1ccccc1` [L-703,606 oxalate salt hydrate] is lower in “MBP+ mature oligodendrocyte number” value: -0.327 for the first, less than -3.97 for the second.

First: CC(=O)NBr [N-Bromoacetamide]
Second: CS(=N)(=O)CC[C@H](N)C(=O)O (stereo partly drawn) [L-Methionine sulfoximine]
The “MBP+ mature oligodendrocyte number” value of the first is higher: -0.668 for the first, -0.794 for the second.

Compared with `CC(C)NP(=O)(NC(C)C)OP(=O)(NC(C)C)NC(C)C` [Tetraisopropyl pyrophosphoramide], `COc1ccc(C(CN(C)C)C2(O)CCCCC2)cc1` (centres undefined) [Venlafaxine] is higher in “MBP+ mature oligodendrocyte number” value: -0.0327 for the first, 1.33 for the second.

Compared with `C#C[C@]1(O)C=C[C@H]2[C@@H]3CCC4=CC(=O)CC[C@@H]4[C@H]3CC[C@@]21CC` [Gestodene], `COc1ccc(C(CN(C)C)C2(O)CCCCC2)cc1` (centres undefined) [Venlafaxine hydrochloride] is lower in “MBP+ mature oligodendrocyte number” value: 3.51 for the first, -0.753 for the second.

Compared with `CC(C)(C)NCC(O)c1ccccc1Cl` (centres undefined) [Tulobuterol hydrochloride], `CCCN(CCC)CCc1ccc(O)c(O)c1` [Dipropyldopamine hydrobromide] is lower in “MBP+ mature oligodendrocyte number” value: -1.5 for the first, -1.64 for the second.

In the case of `C/C=C(\C)C(=O)N[C@@H](c1ccccc1)[C@@H](O)C(=O)O[C@H]1C[C@@]2(O)[C@@H](OC(=O)c3ccccc3)[C@@H]3[C@]4(OC(C)=O)CO[C@@H]4C[C@H](O)[C@@]3(C)C(=O)[C@H](OC(C)=O)C(=C1C)C2(C)C` [Cephalomannine], the “MBP+ mature oligodendrocyte number” value is reported as -2.96.
